Source: the RNAGym collection of RNA variant scans (doi:10.1073/pnas.2313332121)
This sample is rich in variants without activity.

B1: TPR 5TU (parent)
chain: GGAUCUUCUCGAUCUAACAAAAAAGACAAAUCUGCCACAAAGCUUGAGAGCAUCUUCGGAUGCAGAGGCGGCAGCCUUCGGUGGCGCGAUAGCGCCAACGUUCUCAACUAUGACACGCAAAACGCGUGCUCCGUUGAAUGGAGUUUAUCAUG

Variants of: B1
Test: polymerase ribozyme fitness, log enrichment relative to wild type (log ratio); higher = more active; in vitro selection for triplet polymerase activity
In short: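 PCR was used to build mutant libraries for each subunit of a heterodimeric triplet polymerase ribozyme, which were then transcribed. A single in vitro selection round, in triplicate, used a frozen incubation at −7 °C and recovered extended constructs by gel excision, streptavidin beads and RT-PCR. Fitness is the logarithm of genotype enrichment relative to wild-type enrichment, averaged over replicates with inverse-variance weights. The logarithm is base 2, and after Illumina sequencing only genotypes with ≥10 input reads and ≥1 read per output were kept.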

Variant	polymerase ribozyme fitness (log ratio)
A20U A49U C93G C103U	≤ -4.2
A20U G94A	-1.88
A21C	0.199
A20U C35U U53A U82A C87U C93G C132U	≤ -4.2
A20U C57G A73G C96G G140U	≤ -4.2
A20U A28U A52C C85U C123A	≤ -4.2
A20U U45A G84A C93U A113U	≤ -4.2
A21C A28C A40C U109G G133U U134A	≤ -4.2
A20U G48U U61G C85G	≤ -4.2
A20U G50U C51U G74C G88A	≤ -4.2
A20U A89C U109C	≤ -4.2
A20U A23U C51A A122G G126A C129A U139G	≤ -4.2
A20U U45G G71A C95G A107U A119U C131G G141A U145C	≤ -4.2
A20U A41U G48A A49G C96G A106G A107G U135G	≤ -4.2
A20U C27A A30U C76A C85U A110G G117U	≤ -4.2
A20U C87G A91U	≤ -4.2
A20U A40C G94A A115U A119C	-3.89
A21C A26U G140C U146A	≤ -4.2
A20U A23U U44G G59C A60G G84U C95G U104G	≤ -4.2
A20U A49U C51U C57A A89U G92C A98C U148C	≤ -4.2
A20U U55A C85A	-3.29

Variant	polymerase ribozyme fitness (log ratio)
A20U G58C C87G A122G G133A G136C	≤ -4.2
A20U A41G A49U A52C G86C C96G	≤ -4.2
A20U C38A G100U G124C G133U C149A	≤ -4.2
A20U C76U A97G C105U C123U U134A	≤ -4.2
A20U C38G C57U G86A	-3.63
A20U A40U G84A A119U G136U	≤ -4.2
A20U A30U U61G A73G U78C A122U	≤ -4.2
A21C A23U U31A U44A G50A G141U	≤ -4.2
A20U C96U A98G	-1.71
A20U C54A A66U U77C C116G C125A U148C	≤ -4.2
A20U C87A	≤ -4.2
A20U U31G C43G A52U A73C C93U G94U C116G A121G C149U	≤ -4.2
A20U C125A	-2.05
A20U U44C G50U C105U	≤ -4.2
A20U C35U C87U C99U G141C	≤ -4.2
A20U A26C G84U C103G A106C C108G	≤ -4.2
A21C A23U A24U G92A A106G G133A	≤ -4.2
A20U G62U G86A A107U G140A	≤ -4.2
A20U U53A U55A C118G	-3.98
A20U A29G G46C G50C A66U G83A	≤ -4.2
A20U G80C C149G	≤ -4.2

Variant	polymerase ribozyme fitness (log ratio)
A20U A28C U55A C85U G140U	≤ -4.2
A20U A49C G58C C87U	≤ -4.2
A20U A39C C85U C95U U102G A142G	≤ -4.2
A21C A26C A28C G70U A107C A147C	≤ -4.2
A20U C54G	-2.64
A21C A24C A49G U134G U145A	≤ -4.2
A20U A52C C54U G88U A107U C116A	≤ -4.2
A20U C32G U44G U45C G86A U144G U148C A150U	≤ -4.2
A20U U78C A91G U148A U151G	≤ -4.2
A20U C36U A39C A97U	≤ -4.2
A20U U44A C93G U111C	≤ -4.2
A20U C96G	-0.585
A21C A28C G48U C96A G117U	≤ -4.2
A20U A60C C63G A73G C93A A119U A137G U139G	≤ -4.2
A20U A26C U33C G42U A91C U102C C108U G126A	≤ -4.2
A20U U31C U44G U56G G62A G141C	≤ -4.2
A20U U53A G71U G86A G88A A89G U90C	≤ -4.2
A20U C51U U55G C57G A120C	-3.76
A20U G58U G68U A73U G81A C125A	≤ -4.2
A20U A113C G133C	≤ -4.2
A21C A28C C54G G58C C85U A120U G143U	≤ -4.2

Variant	polymerase ribozyme fitness (log ratio)
A20U G46A C54U G70A U77G C85A C108G C116G	≤ -4.2
A20U G48A A60G U139A A142C A147G	≤ -4.2
A21C A24U A30C A49U U55G C87U C125U G141U	≤ -4.2
A20U A41C U44G U61A A64C G88C U134A	≤ -4.2
A20U G50C A64U U111G C125A G152A	≤ -4.2
A20U A47C	-0.824
A21C A22U A29U C57A G83U C87U U90C A110U	≤ -4.2
A20U A23U A39G G42A C99U G136A U145C	≤ -4.2
A20U C35A G92U A110U	≤ -4.2
A20U A49U C57G C95U U102C A113C U148A	≤ -4.2
A20U G58C C85U A98U C129U U134C	-1.85
A20U A24C C54U C63U G65U G84A C132G U148A	≤ -4.2
A20U A66U C125G G133U	≤ -4.2
A20U U56A A64C A107G G126U	≤ -4.2
A20U G70A G86A C96A U135G	≤ -4.2
A20U A29U U53A C95U A147U U148G	≤ -4.2
A20U G81A G94C C103G G124A A138U A147G	≤ -4.2
A20U A122U U144G	-0.756
A20U U33A G136C	≤ -4.2
A20U G80U C85G G140U	≤ -4.2
